Laboratory results reported in patent publication US20240301031A1 (JIANGSU HENGRUI PHARMACEUTICALS, published 2024).

T1: chimeric IL-12 (human p40-mouse p35) (human; mouse, UniProt P29460 23-328; P43431 23-215)
T1 sequence (looked up) 1: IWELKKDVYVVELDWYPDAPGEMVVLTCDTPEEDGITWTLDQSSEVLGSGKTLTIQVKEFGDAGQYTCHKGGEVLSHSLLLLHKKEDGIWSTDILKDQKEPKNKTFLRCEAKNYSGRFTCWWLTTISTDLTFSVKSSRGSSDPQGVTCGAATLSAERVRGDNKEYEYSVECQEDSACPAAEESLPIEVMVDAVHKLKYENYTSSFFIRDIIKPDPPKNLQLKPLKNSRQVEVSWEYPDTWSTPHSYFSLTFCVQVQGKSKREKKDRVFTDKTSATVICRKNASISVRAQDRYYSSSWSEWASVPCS
T1 sequence (looked up) 2: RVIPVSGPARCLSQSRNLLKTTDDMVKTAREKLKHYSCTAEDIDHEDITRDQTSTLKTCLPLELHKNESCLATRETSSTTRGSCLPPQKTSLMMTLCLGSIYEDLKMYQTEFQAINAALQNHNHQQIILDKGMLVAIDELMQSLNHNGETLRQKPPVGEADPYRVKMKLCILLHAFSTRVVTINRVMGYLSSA

T2: human APRIL (5860-AP-010/CF, R&D Systems) (human, UniProt O75888 115-250, limits assumed)
T2 construct: Bought protein
T2 sequence (looked up): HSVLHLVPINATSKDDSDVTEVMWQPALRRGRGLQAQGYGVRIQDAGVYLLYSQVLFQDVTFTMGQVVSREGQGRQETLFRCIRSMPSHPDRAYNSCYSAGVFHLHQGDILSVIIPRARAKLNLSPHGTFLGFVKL

T3: cynomolgus monkey APRIL (APR-CM410B, Kactus) (cynomolgus monkey)
T3 chain: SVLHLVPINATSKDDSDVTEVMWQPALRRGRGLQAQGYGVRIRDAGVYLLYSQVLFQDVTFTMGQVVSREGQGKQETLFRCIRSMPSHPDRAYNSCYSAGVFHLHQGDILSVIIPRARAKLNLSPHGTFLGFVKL

T4: human IL-23 (CT048-H08H, Sino biological) (human, UniProt Q9NPF7 20-189; P29460 23-328)
T4 construct: Bought heterodimer
T4 sequence (looked up) 1: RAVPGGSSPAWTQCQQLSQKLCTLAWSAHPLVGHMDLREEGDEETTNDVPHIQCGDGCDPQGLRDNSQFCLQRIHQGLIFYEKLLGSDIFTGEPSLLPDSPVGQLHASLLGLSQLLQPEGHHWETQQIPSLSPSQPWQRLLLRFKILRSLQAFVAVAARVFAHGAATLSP
T4 sequence (looked up) 2: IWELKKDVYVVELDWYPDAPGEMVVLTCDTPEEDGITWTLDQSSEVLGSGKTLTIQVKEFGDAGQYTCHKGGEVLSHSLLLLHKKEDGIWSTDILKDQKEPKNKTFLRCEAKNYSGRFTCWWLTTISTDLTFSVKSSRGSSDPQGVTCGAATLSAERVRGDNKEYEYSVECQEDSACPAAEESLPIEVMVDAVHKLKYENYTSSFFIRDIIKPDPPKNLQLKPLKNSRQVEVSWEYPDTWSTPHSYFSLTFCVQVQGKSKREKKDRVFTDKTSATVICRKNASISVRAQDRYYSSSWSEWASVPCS

T5: mouse APRIL (7907-AP/CF, R&D Systems) (mouse, UniProt Q9D777 96-241, limits assumed)
T5 construct: Bought protein
T5 sequence (looked up): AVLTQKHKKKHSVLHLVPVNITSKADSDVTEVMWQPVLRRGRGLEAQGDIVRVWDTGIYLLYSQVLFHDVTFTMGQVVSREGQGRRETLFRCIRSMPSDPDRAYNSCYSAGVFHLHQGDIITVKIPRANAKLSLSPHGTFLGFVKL


Tests used:
[1] = target: T1, chimeric IL-12 (human p40-mouse p35); assay: cell-based or functional assay
[2] = target: T6, human BAFF (10056-HNCH, Sino biological) (human, UniProt Q9Y275 partial chain); assay: SPR (Biacore), sample captured on Protein A, antigen flowed, 1:1 fit
T6 construct: Bought protein
Method: (§1) A certain amount of test sample was subjected to affinity capture by a biosensor chip Protein A (GE, 29127556), then antigens at a series of concentration gradients were allowed to flow on the surface of the chip. The reaction signals were detected in real time by using Biacore (GE, 8K) to obtain association and dissociation curves. After the dissociation was completed for each cycle, the biochip was washed and regenerated with a 10 mM glycine-hydrochloric acid solution at pH 1.5 (GE, BR-1003-54). The experimental data were fitted using BIAevaluation version 4.1, GE software with a 1:1 model to obtain affinity values. The related antigen proteins used in this assay are as follows: human IL-23 (CT048-H08H, Sino biological), human IL-12 (CT050-H08H, Sino biological), human BAFF (10056-HNCH, Sino biological), human APRIL (5860-AP-010/CF, R&D Systems), cynomolgus monkey p40 (10215-CL, R&D Systems), cynomolgus monkey BAFF (BAF-CM412B, Kactus), cynomolgus monkey APRIL (APR-CM410B, Kactus), mouse BAFF (BAF-M521y, Acro Biosystems), and mouse APRIL (7907-AP/CF, R&D Systems).

[3] = target: T2, human APRIL (5860-AP-010/CF, R&D …); assay: as above
Method: as §1

[4] = target: T3, cynomolgus monkey APRIL (APR-CM410B, …); assay: as above
Method: as §1

[5] = target: T7, mouse BAFF (BAF-M521y, Acro Biosystems) (mouse, UniProt Q9WU72 127-309); assay: as above
T7 construct: Bought protein
T7 sequence (Q9WU72 127-309 limits assumed): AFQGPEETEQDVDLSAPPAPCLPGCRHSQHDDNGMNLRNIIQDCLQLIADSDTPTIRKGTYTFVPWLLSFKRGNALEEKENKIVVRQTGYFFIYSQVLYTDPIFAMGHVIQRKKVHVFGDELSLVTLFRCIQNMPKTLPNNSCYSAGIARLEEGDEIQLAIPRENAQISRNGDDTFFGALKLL
Method: as §1

[6] = target: T4, human IL-23 (CT048-H08H, Sino …); assay: as above
Method: as §1

[7] = target: T8, cynomolgus monkey BAFF (BAF-CM412B, Kactus) (cynomolgus monkey, UniProt A0A2K5V2X4 134-285); assay: as above
T8 construct: Bought protein
Method: as §1

[8] = target: T5, mouse APRIL (7907-AP/CF, R&D Systems); assay: as above
Method: as §1

IC50 (nM) for the inhibition of IL-12-induced IFNγ secretion [1] [nM]	Kd [2] [nM]	koff [2] [s⁻¹]	kon [2] [M⁻¹ s⁻¹]	Kd [3] [nM]	koff [3] [s⁻¹]	kon [3] [M⁻¹ s⁻¹]	Kd [4] [nM]	koff [4] [s⁻¹]	kon [4] [M⁻¹ s⁻¹]	Kd [5] [nM]	koff [5] [s⁻¹]	kon [5] [M⁻¹ s⁻¹]	Kd [6] [nM]	koff [6] [s⁻¹]	kon [6] [M⁻¹ s⁻¹]	Kd [7] [nM]	koff [7] [s⁻¹]	kon [7] [M⁻¹ s⁻¹]	Kd [8] [nM]	Binder	other results
3.07	0.0966	9.72e-05	1.01e+06	0.0229	0.000488	2.14e+07	0.0323	0.000235	7.27e+06	0.0749	9.53e-05	1.27e+06	0.071	8.83e-05	1.24e+06	0.258	7.81e-05	303000	0.0077	TACI-Mab1 (other, also called TACI antibody fusion protein) heavy: EVQLVQSGAEVKKPGESLKISCKGSGYSFTTYWLGWVRQMPGKGLDWIGIMSPVDSDIRYSPSFQGQVTMSVDKSITTAYLQWNSLKASDTAMYYCARRRPGQGYFDFWGQGTLVTVSS[omitted - human IgG1 constant region]GGSSTSCREEQGEFYDHLLRDCISCASICGQHPKQCAAFCENK light: [omitted - about 200 residues]	koff [8]: 2.89e-05 s⁻¹; kon [8]: 3.75e+06 M⁻¹ s⁻¹
9.31	0.0238	5.32e-05	2.24e+06	0.0148	0.000172	1.16e+07	0.0331	0.000131	3.95e+06	0.0326	6.56e-05	2.01e+06	0.09	0.000103	1.14e+06	0.0933	5.91e-05	633000	0.00821	TACI-Mab2 (other, also called TACI antibody fusion protein) heavy: EVQLVQSGAEVKKPGESLKISCKGSGYSFTTYWLGWVRQMPGKGLDWIGIMSPVDSDIRYSPSFQGQVTMSVDKSITTAYLQWNSLKASDTAMYYCARRRPGQGYFDFWGQGTLVTVSS[omitted - human IgG1 constant region]GGSSTSCREEQGEFYDHLLRDCISCASICGQHPKQCAAFCENK light: STSCREEQGEFYDHLLRDCISCASICGQHPKQCAAFCENKLGGGGSGGGGSGGGGS[omitted - about 200 residues]	koff [8]: 2.62e-05 s⁻¹; kon [8]: 3.19e+06 M⁻¹ s⁻¹
